The values below come from publication PMC4336329 (PLoS ONE, 2015).

Screen size: about 310,000 compounds; about 14,000 (4.5%) showed an effect of 50% or more. Effects have a minus sign here. The list shows a part of the results.
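Also: peak tail current of the secondary pulse compared with the same well before compound.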

The target in this test is human ether-à-go-go-related gene (hERG) potassium channel (human, UniProt Q12809). In words: primary screen, population patch clamp on CHO cells stably expressing hERG.
Sequence of human ether-à-go-go-related gene (hERG) potassium channel (Q12809 whole entry, looked up): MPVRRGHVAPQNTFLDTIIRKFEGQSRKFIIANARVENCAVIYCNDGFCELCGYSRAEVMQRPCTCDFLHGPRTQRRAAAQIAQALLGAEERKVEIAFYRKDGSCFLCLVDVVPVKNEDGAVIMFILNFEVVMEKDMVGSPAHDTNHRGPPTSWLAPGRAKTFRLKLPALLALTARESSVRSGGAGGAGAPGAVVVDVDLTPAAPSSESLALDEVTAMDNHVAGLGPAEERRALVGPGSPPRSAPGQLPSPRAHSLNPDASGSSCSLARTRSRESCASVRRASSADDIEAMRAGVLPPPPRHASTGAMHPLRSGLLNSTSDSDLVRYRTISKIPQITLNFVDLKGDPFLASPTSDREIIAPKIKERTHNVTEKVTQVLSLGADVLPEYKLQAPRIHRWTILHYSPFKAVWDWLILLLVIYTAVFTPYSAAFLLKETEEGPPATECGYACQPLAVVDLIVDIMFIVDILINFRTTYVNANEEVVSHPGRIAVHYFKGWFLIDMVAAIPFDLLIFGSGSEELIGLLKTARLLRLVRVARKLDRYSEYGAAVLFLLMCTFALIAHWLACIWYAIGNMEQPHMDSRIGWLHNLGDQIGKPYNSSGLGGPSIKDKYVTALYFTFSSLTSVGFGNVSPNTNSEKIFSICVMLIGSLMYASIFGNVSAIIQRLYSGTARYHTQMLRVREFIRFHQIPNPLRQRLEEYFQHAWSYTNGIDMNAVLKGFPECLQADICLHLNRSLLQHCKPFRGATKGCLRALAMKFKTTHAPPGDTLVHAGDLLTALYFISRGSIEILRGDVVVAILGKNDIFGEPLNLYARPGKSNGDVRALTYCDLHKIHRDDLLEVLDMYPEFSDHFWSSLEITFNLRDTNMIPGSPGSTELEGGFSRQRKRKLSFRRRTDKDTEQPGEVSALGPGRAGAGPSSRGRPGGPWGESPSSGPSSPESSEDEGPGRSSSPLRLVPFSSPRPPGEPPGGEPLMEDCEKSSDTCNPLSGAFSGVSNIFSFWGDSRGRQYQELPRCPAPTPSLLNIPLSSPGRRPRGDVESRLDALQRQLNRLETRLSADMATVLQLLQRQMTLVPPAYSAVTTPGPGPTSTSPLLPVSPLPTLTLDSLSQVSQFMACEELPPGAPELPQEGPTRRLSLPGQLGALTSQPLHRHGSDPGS
As to `C=COCCNC(=S)Nc1ccccc1`, the “hERG current change (%, negative = inhibition) at 10uM” value was 9.6%. As to `CS(=O)(=O)NCc1ccc(C(=O)NCc2ccccc2)cc1`, the “hERG current change (%, negative = inhibition) at 10uM” value is reported as -8.76%.

As to `O=C(NCc1ccc2c(c1)OCO2)C(=O)NCC1CCCO1` (stereo not shown), the “hERG current change (%, negative = inhibition) at 10uM” value is 15.2%. With `Cc1cccc(NS(=O)(=O)c2cccs2)c1` the figure was 8.96%. As to `Nc1cc(C(=O)OCC(=O)N2CCC(Cc3ccccc3)CC2)ccc1Cl`, the “hERG current change (%, negative = inhibition) at 10uM” value is listed as -12%. With `COC(=O)C1=C(C)Nc2ncnn2C1c1ccc(OC(=O)c2ccccc2)cc1` (stereo not shown) the figure was 2.21%; with `COCCN(Cc1nnc(-c2cccs2)o1)C(=O)c1cccc(S(=O)(=O)N2CCOCC2)c1`, -18%; with `CC(NC(=O)COC(=O)C1CCN(c2ccc(C(F)(F)F)cn2)CC1)c1ccc(F)cc1` (stereo not shown), 6.31%.

`O=C(Nc1nnc(SCC(=O)N2CCOCC2)s1)C1CC(=O)N(c2ccccc2)C1` (stereo not shown): the “hERG current change (%, negative = inhibition) at 10uM” value is 26.7%. With `Cc1noc(NS(=O)(=O)c2ccc(NC(=O)CC34CC5CC(CC(Br)(C5)C3)C4)cc2)c1C` the figure was 12.2%. With `COC(=O)c1ccc(NC(=O)CN2CCN(CCO)CC2)cc1.Cl` the figure was -5.29%. With `CCCC(NS(=O)(=O)c1ccc(-c2ccc(=O)[nH]n2)s1)c1cccs1` (stereo not shown) the figure was -13%; with `FC(F)(F)c1cccc(N2CCN(C(=S)NC3CCCC3)CC2)c1`, 11.4%; with `COc1ccc(-c2nc3ccccn3c2/N=C/c2ccc(OC)c(OC)c2)cc1O`, -24.1%. As for `O=c1c2ccccc2nc(/C=C/c2ccc3c(c2)OCO3)n1-c1ccccc1`, the “hERG current change (%, negative = inhibition) at 10uM” value was -26%. Take `Cl.NCc1cc2c3c(c1)CCCN3CCC2`: the “hERG current change (%, negative = inhibition) at 10uM” value is 22.3%. As to `CCOc1ccc(NCc2nc3ccccc3n2CCOc2ccccc2)cc1`, the “hERG current change (%, negative = inhibition) at 10uM” value is -11.6%.

Regarding `CC(C)(C)C(=O)Nc1cc2c3c(c1)CCN3C(=O)CC2`, the “hERG current change (%, negative = inhibition) at 10uM” value was 10.6%. Consider `CCOC(=O)N1CCC(NC(=O)c2cccnc2SC)CC1`, for which the “hERG current change (%, negative = inhibition) at 10uM” value stood at 22%. On to `COCCNC(=O)CSc1nc2cc3c(cc2c(=O)n1Cc1ccco1)OCO3`, for which the “hERG current change (%, negative = inhibition) at 10uM” value is given as -27.4%. As for `Nc1ccccc1S(=O)(=O)c1ccccc1N`, the “hERG current change (%, negative = inhibition) at 10uM” value is listed as 16.2%.

As for `O=[N+]([O-])c1cc([N+](=O)[O-])c(Oc2cc(F)cc(F)c2)cc1NN1CCCCC1`, the “hERG current change (%, negative = inhibition) at 10uM” value amounted to 24.3%. Take `CCOc1ccc(S(=O)(=O)N(CC(=O)Nc2cc(C)on2)Cc2ccccc2Cl)cc1`: the “hERG current change (%, negative = inhibition) at 10uM” value is -2.63%. For `O=C(CS(=O)Cc1ccccc1Cl)Nc1ccccc1Cl` (stereo not shown), the “hERG current change (%, negative = inhibition) at 10uM” value was determined as 23.9%. With `Cn1ncc2c(O/N=C(\N)c3ccc(C(C)(C)C)cc3)ncnc21` the figure was 0.167%.
